# The full ranking holds about 33,000 sequences; the median of “E-score (-0.5 to 0.5)” is about -0.017, and the highest 2% start at about 0.3. The list shows a part of the results.
# Target: T1, Sut1 (UniProt P53032)
# T1 sequence: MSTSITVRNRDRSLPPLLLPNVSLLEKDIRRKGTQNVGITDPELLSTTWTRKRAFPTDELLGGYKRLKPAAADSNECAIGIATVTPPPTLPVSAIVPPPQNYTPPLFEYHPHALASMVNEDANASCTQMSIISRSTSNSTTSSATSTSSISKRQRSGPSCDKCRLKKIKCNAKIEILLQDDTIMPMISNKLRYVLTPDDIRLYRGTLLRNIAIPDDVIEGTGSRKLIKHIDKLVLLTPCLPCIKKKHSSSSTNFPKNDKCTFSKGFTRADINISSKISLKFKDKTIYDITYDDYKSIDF
# Test: PBM E-score (8-mer binding enrichment) (E-score (-0.5 to 0.5)); higher = stronger / more preferred TF binding; most listed sequences are background and not binding sites
# Conditions: protein concentration: 200 nM; construct: GST-full length
# How it was run: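 Each ungapped eight-base word and its reverse complement, pooled, received an E-score from the Universal PBM Analysis Suite. Underlying scans, normalised with masliner, recorded fluorescent anti-GST bound to GST-tagged yeast transcription factors. These were applied at about 100-200 nM to universal all-10-mer Agilent arrays double-stranded by primer extension.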
row,Sequence,PBM E-score
1,ATTTCAGA,0.00515
2,GCTTCCAA,0.119
3,AAATTCTA,0.131
4,CCGGTATA,0.0186
5,ACGGATCA,0.113
6,AGTCAATA,0.169
7,AGCGGCGA,0.0499
8,GCTTTGCC,-0.101
9,TTAACTAA,0.238
10,TCCCCACA,-0.262
11,GCAAAGTA,0.0736
12,AACCTGGG,-0.263
13,CCCGCACA,-0.226
14,AAGGTTGT,0.0599
15,GGGTTCTA,-0.0976
16,AAAGCTTG,-0.0326
17,AGTGAGGA,-0.144
18,AAAAGCCC,0.113
19,AATACCCT,0.00628
20,CATACGAG,-0.242
21,CTTCTATA,0.0327
22,GCGCAGGA,-0.229
23,CCTTACCC,-0.153
24,CATCAATG,-0.00429
25,CTGTTCAC,-0.169

row,Sequence,PBM E-score
1,CACTGACA,-0.0631
2,AAAGTCTG,-0.0775
3,CTCCGGTA,0.413
4,TCAGCTCA,-0.0437
5,ATGCTTCC,-0.0222
6,ATTACCCG,-0.00694
7,CTCCGCTC,0.295
8,ACACGGCA,-0.0415
9,ACAGGCAG,-0.101
10,ACACCTGA,-0.104
11,AAGGAATC,-0.0249
12,GTTAGCGA,0.0425
13,AGCCTCAA,-0.0777
14,GCCTTCTA,-0.0376
15,ACCTTATC,0.0449
16,CCGGTGGC,-0.00565
17,AAGACGGT,-0.0442
18,GTTGTGCA,-0.266
19,CCCACCCG,-0.147
20,AACTTCGT,0.0951
21,ACCCAATG,-0.0962
22,ACGGCATC,-0.0922
23,ATGTACTC,0.146
24,GTTTTTGA,0.164
25,ATGCGGCA,-0.135

row,Sequence,PBM E-score
1,AAAGTAGA,0.0665
2,GATCGCTA,-0.0253
3,GCACTGGA,-0.187
4,GCCAATCC,-0.0199
5,CTCAGGGA,-0.287
6,CTCGACGA,-0.123
7,CCTGCTCG,-0.299
8,CGGCGGAG,0.178
9,AGAGTGCC,-0.161
10,GCAATTTA,0.18
11,CTAAGGGC,-0.288
12,GTCTAATA,0.0514
13,TCGGGAAA,0.0513
14,AAACGCAT,-0.26
15,TATGATAA,0.233
16,ATTTGACA,0.122
17,CCATCCGA,0.0728
18,ATAATCAA,0.221
19,CCCGACTA,-0.00983
20,CGGATAAA,0.341
21,CGCTCTAC,-0.137
22,CAGCGCAC,-0.192
23,ATTGCCGG,0.103
24,AGGCTCGG,0.154
25,ACTTTACA,0.115

row,Sequence,PBM E-score
1,TATTGGAA,0.089
2,GTCTGATA,-0.0593
3,AGAAACCG,-0.0248
4,GCAGGGGC,-0.322
5,CTCCAGGA,-0.17
6,GCCGATAA,0.00363
7,CGGGCACA,-0.171
8,AACATGTT,-0.0414
9,CACGGAGA,0.355
10,TAAAATCA,0.19
11,CGACCGCC,-0.257
12,AAGTTTCG,0.174
13,AAGTGATA,0.0865
14,TAATTGGA,0.172
15,ACCTCAAT,0.0135
16,CGATCAGA,-0.128
17,CGAATATA,0.231
18,AGTACTTG,0.0358
19,TTCAGAAA,0.157
20,CAAGCCTC,-0.243
21,CCAAACCC,-0.0968
22,ATGTAATG,0.23
23,AACAGGCC,-0.0938
24,CGGGGCGC,-0.134
25,ACGGCGGG,-0.181

row,Sequence,PBM E-score
1,GGAGCAAA,0.123
2,ATAGGATA,0.134
3,ATGCGCAG,-0.309
4,GGGTCAAA,-0.116
5,AGTCCCTA,-0.204
6,GTTTCCAA,0.0451
7,CTAACAAC,0.179
8,ACGTATAG,0.0316
9,GACTAAAA,0.227
10,AACTTACC,0.0569
11,GCTCCCAA,-0.0979
12,AGCAGTTG,-0.0164
13,AAACGTGA,0.0732
14,GCTCGCCA,-0.0188
15,GCCGCAGA,-0.0852
16,CATTTCAG,0.0719
17,ACTGGTAA,0.177
18,GGCCACAC,0.0644
19,TCGTTGCA,-0.0958
20,CACAGGCG,-0.0616
21,AAGCCAAT,0.11
22,TAACAAAA,0.287
23,ACATTGTA,0.17
24,GTCCGCCA,0.0605
25,TTGCTAAA,0.026

row,Sequence,PBM E-score
1,AATGCTTG,-0.238
2,GCAGATGC,-0.29
3,ACGTGGCT,-0.241
4,GGAAACAC,0.113
5,AGAGTTGC,-0.076
6,GCAAGGCA,-0.215
7,CGGGCGTC,-0.0799
8,CTCGATTA,0.0353
9,ATATGGCC,-0.117
10,GAAAACTA,0.154
11,AGCTAAAT,0.0415
12,CGGAGAGC,0.109
13,CAAGGGTA,-0.228
14,ATTGCCTC,0.0893
15,CGATTGTA,0.152
16,AACACACG,0.0232
17,AACGTTGA,0.0486
18,CATACACC,-0.041
19,TATGTTCA,0.124
20,AGGCTGCC,-0.124
21,TGCACCAA,-0.248
22,AATCCAAC,0.0651
23,GCGAATGA,0.103
24,ACGTTTCT,-0.129
25,CTCTCCAC,-0.154

row,Sequence,PBM E-score
1,AGGTGGTA,0.0328
2,ACGACCCT,-0.197
3,CACCTCTG,-0.194
4,CGCGATCA,-0.123
5,CCTATTAC,0.116
6,CTGTGTCA,-0.131
7,AGATGCCC,-0.15
8,AAGCAAAG,0.0776
9,GCAGTAGA,-0.121
10,CGCTTATA,0.0405
11,CGACGAAC,-0.0348
12,ACTTTCTG,0.154
13,CGTCTTTC,0.105
14,AGACTCCT,-0.142
15,CGCCGGCC,-0.0583
16,ACGCTTCG,0.0504
17,TCACGAAA,0.094
18,ATCTAGGC,-0.242
19,CACTCCAC,-0.0759
20,TGCCTCAA,-0.0365
21,AGACTCCC,-0.319
22,CAACCTGC,-0.138
